# Experimental data taken from the supplement of paper PMC8728848.
# The other results are listed elsewhere or left out.
# Columns and labels:
# Experiment in all cases: glycan array binding signal (z-score within array); higher = stronger binding
# Details in all cases: glycan notation: IUPAC condensed, linker removed
# [1] = target: Gal3S(b1-3)[Fuc(a1-4)]GlcNAc
# Outline: (§1)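 Glycan array binding is given as a within-array Z-score, which can be read as non-binding when negative. The arrays, 3228 of them, came from the Consortium for Functional Glycomics database and were retained only where the protein sequence was available. Z-scores were averaged across arrays of the same protein sequence at different concentrations or buffers and across linkers.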
# [2] = target: Gal3S(b1-4)Glc
# Outline: as §1
# [3] = target: Gal3S(b1-4)Glc6S
# Outline: as §1
# [4] = target: Gal3S(b1-4)GlcNAc
# Outline: as §1
# [5] = target: Gal3S(b1-4)GlcNAc6S
# Outline: as §1
# [6] = target: Gal3S(b1-4)[Fuc(a1-3)]Glc
# Outline: as §1
# [7] = target: Gal3S(b1-4)[Fuc(a1-3)]Glc6S
# Outline: as §1
# [8] = target: Gal3S(b1-4)[Fuc(a1-3)]GlcNAc
# Outline: as §1
# [9] = target: Gal3S(b1-4)[Fuc(a1-3)]GlcNAc6S
# Outline: as §1
# [10] = target: Gal3S4S(b1-4)GlcNAc
# Outline: as §1
# [11] = target: Gal3S6S(b1-4)GlcNAc
# Outline: as §1
# [12] = target: Gal3S6S(b1-4)GlcNAc6S
# Outline: as §1
# [13] = target: Gal4S(b1-4)GlcNAc
# Outline: as §1
# [14] = target: Gal4S6S(b1-4)GlcNAc
# Outline: as §1
# [15] = target: Gal6P(b1-4)GlcNAc
# Outline: as §1
# [16] = target: Gal6S(b1-3)GlcNAc
# Outline: as §1
# [17] = target: Gal6S(b1-3)GlcNAc6S
# Outline: as §1
# [18] = target: Gal6S(b1-4)Glc
# Outline: as §1
# [19] = target: Gal6S(b1-4)Glc6S
# Outline: as §1
# [20] = target: Gal6S(b1-4)GlcNAc
# Outline: as §1
# [21] = target: Gal6S(b1-4)GlcNAc6S
# Outline: as §1
# [22] = target: GalNAc(a1-3)Gal
# Outline: as §1
# [23] = target: GalNAc(a1-3)GalNAc
# Outline: as §1
# [24] = target: GalNAc(a1-3)GalNAc(b1-3)Gal(a1-4)Gal(b1-4)Glc
# Outline: as §1
# [25] = target: GalNAc(a1-3)GalNAc(b1-3)Gal(a1-4)Gal(b1-4)GlcNAc
# Outline: as §1
# [26] = target: GalNAc(b1-3)Gal
# Outline: as §1
# [27] = target: GalNAc(b1-3)Gal(a1-4)Gal(b1-4)GlcNAc
# Outline: as §1
# [28] = target: GalNAc(b1-3)Gal(a1-4)Gal(b1-4)GlcNAc(b1-3)Gal(b1-4)Glc
# Outline: as §1
# [29] = target: GalNAc(b1-3)Gal(a1-6)Gal(b1-4)Glc
# Outline: as §1
# [30] = target: GalNAc(b1-3)GalNAc
# Outline: as §1
# [31] = target: GalNAc(b1-3)GlcNAc
# Outline: as §1
# [32] = target: GalNAc(b1-4)Gal(b1-4)Glc
# Outline: as §1
# [33] = target: GalNAc(b1-4)GlcNAc
# Outline: as §1
# [34] = target: GalNAc(b1-4)GlcNAc(b1-2)Man
# Outline: as §1
# [35] = target: GalNAc(b1-4)GlcNAc(b1-2)Man(a1-3)[GalNAc(b1-4)GlcNAc(b1-2)Man(a1-6)]Man(b1-4)GlcNAc(b1-4)GlcNAc
# Outline: as §1
# [36] = target: GalNAc(b1-4)GlcNAc(b1-3)GalNAc(b1-4)GlcNAc
# Outline: as §1
# [37] = target: GalNAc(b1-4)GlcNAc6S
# Outline: as §1
# [38] = target: GalNAc(b1-6)GalNAc
# Outline: as §1
# [39] = target: GalNAc3S(b1-4)GlcNAc
# Outline: as §1
# [40] = target: GalNAc3S(b1-4)GlcNAc3S
# Outline: as §1
# [41] = target: GalNAc3S(b1-4)[Fuc(a1-3)]GlcNAc
# Outline: as §1
# [42] = target: GalNAc4S6S(b1-4)GlcNAc
# Outline: as §1
# [43] = target: GalNAc6S(b1-4)GlcNAc
# Outline: as §1
# [44] = target: Glc(a1-4)Glc
# Outline: as §1
# [45] = target: Glc(a1-4)Glc(a1-4)Glc(a1-4)Glc
# Outline: as §1
binder,measurement,setting,value
"HPAIIITrx (Helix pomatia), Q1KM18 (protein) MLFVTIISLGLLAIVHGQCALKTIAFSAAIDREQTFDANQVVIYDIVITNHGNAYDNSTGLFTAPVDGMYSFQLNLLTIKEKEGWLELVHNGQLKVSVYAKQDSTYDSSSNSVIIKMKEGDRVNVRAHKKSGLFGRDDELYNTFSGHFLSGL",glycan array binding signal (z-score),[1],-0.199
same,glycan array binding signal (z-score),[2],0.469
same,glycan array binding signal (z-score),[3],0.507
same,glycan array binding signal (z-score),[4],-0.024
same,glycan array binding signal (z-score),[5],0.307
same,glycan array binding signal (z-score),[6],-0.474
same,glycan array binding signal (z-score),[7],0.204
same,glycan array binding signal (z-score),[8],-0.24
same,glycan array binding signal (z-score),[9],1.09
same,glycan array binding signal (z-score),[10],0.795
same,glycan array binding signal (z-score),[11],0.425
same,glycan array binding signal (z-score),[12],0.795
same,glycan array binding signal (z-score),[13],-0.358
same,glycan array binding signal (z-score),[14],0.361
same,glycan array binding signal (z-score),[15],0.126
same,glycan array binding signal (z-score),[16],-0.385
same,glycan array binding signal (z-score),[17],0.096
same,glycan array binding signal (z-score),[18],-0.135
same,glycan array binding signal (z-score),[19],0.519
same,glycan array binding signal (z-score),[20],-0.28
same,glycan array binding signal (z-score),[21],0.61
same,glycan array binding signal (z-score),[22],2.5
same,glycan array binding signal (z-score),[23],3.35
same,glycan array binding signal (z-score),[24],5.39
same,glycan array binding signal (z-score),[25],4.56
same,glycan array binding signal (z-score),[26],-0.201
same,glycan array binding signal (z-score),[27],-0.178
same,glycan array binding signal (z-score),[28],-0.456
same,glycan array binding signal (z-score),[29],-0.41
same,glycan array binding signal (z-score),[30],-0.254
same,glycan array binding signal (z-score),[31],-0.392
same,glycan array binding signal (z-score),[32],-0.196
same,glycan array binding signal (z-score),[33],-0.239
same,glycan array binding signal (z-score),[34],-0.358
same,glycan array binding signal (z-score),[35],0.75
same,glycan array binding signal (z-score),[36],-0.463
same,glycan array binding signal (z-score),[37],-0.265
same,glycan array binding signal (z-score),[38],-0.412
same,glycan array binding signal (z-score),[39],-0.402
same,glycan array binding signal (z-score),[40],-0.241
same,glycan array binding signal (z-score),[41],-0.376
same,glycan array binding signal (z-score),[42],-0.072
same,glycan array binding signal (z-score),[43],-0.418
same,glycan array binding signal (z-score),[44],-0.177
same,glycan array binding signal (z-score),[45],-0.24
